Results from PubChem BioAssay AID504466 (National Center for Advancing Translational Sciences (NCATS), 2011).
Hit rate of the full screen: of about 330,000 compounds, about 4,200 (1.3%) were called active. This list was built around the results that the source calls inconclusive (neither active nor inactive); the mix of calls is not that of the screen. The call rests on the fitted dose curve; in most records, active means well fitted activation curve with a large enough effect; inconclusive means small, poorly fitted or top-dose-only effect; inactive means no such curve, though single readings can be large or run the other way. Potencies beside an inconclusive call are fits to weak or partial responses and may not hold up.

experiment: qHTS screen for small molecules that induce genotoxicity in human embryonic kidney (HEK293T) cells expressing luciferase-tagged ELG1; settings: HEK293T ELG1-luciferase reporter, luminescence, 16 h; series mostly up to 46 µM; further: nearly all actives have a fitted effect of over 60% in size
Procedure, shortened: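 Quantitative HTS format in 1536-well plates. HEK293T ELG1-luciferase reporter cells receive test compound and are incubated 16 hr at 37 °C, 5% CO2; ONE-Glo added, 30 min room temperature, then luminescence read.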
Potency means the concentration at half of the fitted maximal effect; tags describe the fitted curve by direction and shape.

SMILES | Potency
COc1ccc(/C=C/C(=O)c2ccccc2)c(OC)c1 | inconclusive: 8.2 µM [activator, partial curve]
O=C(Nc1nnc(SCC(=O)N2CCOCC2)s1)c1ccccc1 | inconclusive: 20.6 µM [activator, partial curve, poor fit]
CC(C)(C)c1ccc(NC(=O)c2ccc(=O)[nH]n2)cc1 | inconclusive: 3.66 µM [activator, full curve]
O=C(C1CC(c2ccccc2O)=NO1)N1CCCC1 (configuration not stated) | inconclusive: 16.4 µM [activator, partial curve]
O=C(Nc1ccc2ncccc2c1)c1ccccc1Br | active: 6.51 µM
COc1cccc(NC(=O)CN(C)C(=O)CNC(=O)c2ccc3ccccc3c2)c1 | inconclusive: 20.6 µM [activator, single point]
CC(/C=N/N1CCN(c2ccccn2)CC1)=C\c1ccccc1 | inconclusive: 14.6 µM [activator, partial curve]
O=C(Nc1ccc(Cl)cc1)c1ccsn1 | inconclusive: 7.31 µM [activator, partial curve]
Cc1ccc(C(=O)/C=C\C(=O)c2ccc(C)cc2)cc1 | inconclusive: 18.4 µM [activator, partial curve, poor fit]
CSC1=C(C#N)C(=O)NC(c2ccc(Cl)cc2)S1 (configuration not stated) | inconclusive: 29.1 µM [activator, partial curve, poor fit]
COc1ccc(C(=O)NNC(=O)c2ccccn2)cc1 | active: 0.146 µM
c1ccc2c(c1)oc1c(Nc3ccc4c(c3)OCO4)ncnc12 | active: 5.8 µM
COc1ccccc1C1CN=NC12CCCc1ccccc1C2=O (configuration not stated) | inactive
Cn1c(=O)c2c(nc(CN3CCc4ccccc4C3)n2Cc2ccc(Cl)cc2)n(C)c1=O | inactive
COc1cc(NC(=O)Cn2cnc3c(SC)nc(N)nc32)cc(OC)c1OC | inconclusive: 0.58 µM [activator, partial curve, poor fit]
O=C(CSc1nccn1-c1ncc(C(F)(F)F)cc1Cl)c1ccc(Br)cc1 | inconclusive: 5.8 µM [activator, partial curve, poor fit]
O=C(CCc1ccccc1)NC(=S)Nc1cccc(C(=O)O)c1 | inconclusive: 7.3 µM [activator, partial curve, poor fit]
COc1cc(C=C2C(=O)OC(C)(C)OC2=O)ccc1OCC(=O)Nc1ccccc1 | inconclusive: 20.6 µM [activator, partial curve]
O=C(NNC(=O)c1ccc(F)cc1F)c1ccc2c(c1)OCO2 | inconclusive: 23.1 µM [activator, partial curve, poor fit]
COc1ccc2nc(NC(=O)c3ccco3)sc2c1 | active: 0.58 µM
Cc1ccc(S(=O)(=O)NCC(c2ccco2)N2CCc3ccccc3C2)cc1 (configuration not stated) | inactive
CCN1C(=O)/C(=C/N(C)c2ccccc2)OC1=S | inconclusive: 14.6 µM [activator, partial curve]
CC1=C(C(=O)Nc2cc(C(=O)NCCC(C)C)ccc2C)SCCO1 | inactive
Cn1nnc2cc(C(=O)Nc3ccc4ccccc4c3)ccc21 | active: 2.31 µM

SMILES | Potency
Cc1ccccc1Nc1nc(N)nc(CSc2nnnn2C)n1 | inconclusive: 13 µM [activator, partial curve, poor fit]
CCCCCCN(C(=O)CCCN1C(=O)NC(c2ccc([N+](=O)[O-])cc2)C(C(=O)OCc2ccccc2)=C1C)C(C)C(=O)NCCCC (configuration not stated) | inactive
Cn1c(SCC(=O)c2ccccc2)nnc1-c1ccco1 | inconclusive: 23.1 µM [activator, single point]
Cc1ccc(C(=O)c2coc3ccc(O)c(Cl)c23)cc1 | inconclusive: 6.51 µM [activator, single point]
Nc1ccc(Oc2ccc3c(c2)C(=O)N(CC2CCCO2)C3=O)cc1 (configuration not stated) | inconclusive: 11.6 µM [activator, partial curve, poor fit]
CCOC(=O)c1ccc(NC(=S)Nc2ccc(Cl)cn2)cc1 | inactive
C[C@H](NC(=O)c1ccco1)C(=O)N1CCN(c2ccc(C(F)(F)F)cn2)CC1 | inactive
COc1ccc(OCCSc2n[nH]c(N)n2)cc1 | inconclusive: 32.6 µM [activator, partial curve, poor fit]
O=C(CSc1nc2ccccc2c(=O)n1-c1ccccc1)N1CCc2ccccc21 | inconclusive: 18.4 µM [activator, partial curve, poor fit]
Cc1ccc(-c2csc(NC(=O)CSc3nc4ccccc4o3)n2)cc1 | inconclusive: 23.1 µM [activator, partial curve, poor fit]
O=C(c1ccsc1)N1CCCC(Nc2cccc(F)c2)C1 (configuration not stated) | inactive
O=C(CCN=C1NS(=O)(=O)c2ccccc21)OCc1ccccc1 | inactive
COc1cc(/C=N/n2cnnc2)ccc1OCc1ccc(C)cc1 | active: 23.1 µM
COc1ccc(C(=O)Nc2sc3c(c2C(=O)NCc2ccco2)CCCC3)cc1OC | inactive
COc1ccc(NC(=O)c2cc(-c3ccco3)on2)cc1 | inactive
Cc1ccccc1OCC(=O)OCC(=O)c1ccc(OCc2ccccc2)cc1 | inconclusive: 13 µM [activator, partial curve]
Cc1cccc(NC(=O)c2ccc(S(=O)(=O)N(C)C)cc2)n1 | inconclusive: 23.1 µM [activator, partial curve, poor fit]
C#CCn1c(=NC(=O)c2ccc(Cl)s2)sc2cccc(OC)c21 | inconclusive: 10.3 µM [activator, partial curve]
Cc1ccc(CNC(=O)C2(S(=O)(=O)c3ccccc3)CC=CC2)cc1 | inconclusive: 18.3 µM [activator, partial curve]
CN1CCc2nc(NC(=O)c3cccc(OC(F)F)c3)sc2C1 | inconclusive: 12.6 µM [activator, single point]
COc1ccc(Nc2nc3ccccc3s2)cc1 | inconclusive: 1.83 µM [activator, full curve]
Cc1cccc(-c2noc(-c3ccc(F)cc3)n2)c1 | inconclusive: 2.06 µM [activator, full curve]
Cc1ccc(S(=O)(=O)N2CCCCC2)cc1C(=O)OC1CCCCC1=O (configuration not stated) | inactive
O=S(=O)(Cc1ccccc1)N1CCN(Cc2ccc(Br)cc2)CC1 | active: 16.4 µM

SMILES | Potency
O=C(CSc1ccccn1)Nc1ccc2c(c1)CCC2 | inconclusive: 13 µM [activator, partial curve, poor fit]
O=C(Nc1ncc([N+](=O)[O-])s1)c1ccc2c(c1)OCO2 | inconclusive: 0.0651 µM [activator, full curve, poor fit]
Cc1ccc(-c2cc(C(=O)NCc3cccnc3)no2)cc1 | active: 13 µM
N#Cc1nn(-c2ccccc2)nc1N1CCCCC1 | inconclusive: 16.4 µM [activator, partial curve, poor fit]
CCn1ccc(C(=O)Nc2ccccc2Cl)n1 | active: 8.2 µM
COc1ccc(/C(N)=N/OC(=O)COc2ccccc2Cl)cc1 | inconclusive: 29.1 µM [activator, partial curve, poor fit]
COC(=O)c1ccc(Oc2c(C)oc3cc(OCc4cnn(-c5ccccc5)c4)ccc3c2=O)cc1 | inconclusive: 18.4 µM [activator, partial curve]
Cc1cc2nc3c(=O)n(C4CCCCC4)c(=O)[nH]c3nc2cc1N | inconclusive: 29.1 µM [activator, single point]
Cn1/c(=N/NC(=O)c2ccccc2Br)sc2ccccc21 | inconclusive: 20.6 µM [activator, single point]
COn1c(-c2ccc(Cl)cc2)nc2ncccc21 | inconclusive: 11.6 µM [activator, partial curve, poor fit]
O=C(/C=C/c1ccccc1)NCCOc1ccccc1 | inconclusive: 20.6 µM [activator, single point]
CN(C)c1ccc(CNC(=O)C2CCC(CNc3c(N4CCCCC4)c(=O)c3=O)CC2)cc1 (configuration not stated) | inactive
N=c1oc2ccccc2cc1-c1nc2ccccc2c(=O)[nH]1 | inconclusive: 18.4 µM [activator, partial curve]
COc1ccc(-c2[nH]ncc2CN2CCCOc3c(cccc3OC)C2)c(OC)c1 | inactive
COc1cc(CCC(C)=O)ccc1OC(=O)c1c(F)cccc1Cl | inconclusive: 5.17 µM [activator, partial curve]
CCC(=Nc1ccc(N)cc1)C1=C(O)C(C(=O)OC)C(C)(C)CC1=O (configuration not stated) | inconclusive: 10.3 µM [activator, single point]
CC(C)c1ccc(/C=N/NC(=O)C2CCCC2)cc1 | active: 5.8 µM
O=C1c2cccc(OCC(=O)N3CCCc4ccccc43)c2CCN1Cc1ccccc1 | inactive
CCOC(=O)c1ccc(N=C2S/C(=C\c3cc(C)n(-c4cccnc4)c3C)C(=O)N2C)cc1 | inactive
O=C(Nc1ccccc1)OCc1cncs1 | inactive
CCCn1c(O)c(N=Nc2ccc3ccccc3n2)c2ccccc21 | inconclusive: 10.3 µM [activator, partial curve, poor fit]
Cc1cc(N2CCC(C(N)=O)CC2)nc(-c2ccccc2)n1 | inconclusive: 16.4 µM [activator, partial curve, poor fit]
CC(C)N(Cc1ccccc1)C(=O)CN1c2cccc3cccc(c23)S1(=O)=O | inactive
CC1=NN(c2ccccc2)C(=O)/C1=C\c1cc(C)n(-c2ccccc2)c1C | inconclusive: 2.59 µM [activator, full curve, poor fit]
